Experiment: LCMS, IgG1 BsAb co-expression; HCB homodimer species

Protein | % BB Homodimer (incorrect assembly) [%]
BHA10 HC_WT + BHA10 LC (IgG1) (protein) chain 1: QVQLVQSGAEVKKPGSSVKVSCKASGYTFTTYYLHWVRYAPGQGLEWMGWIYPGNVHAQYNEKFKGRVTITADKSTSTAYMELSSLRSEDTAVYYCARSWEGFPYWGRGTTVTVSSASTKGPSVFPLAPCSKSTSGGTAALGCLVKDYFPEPVTVSWNSGALTSGVHTFPAVLQSSGLYSLSSVVTVPSSSLGTQTYICNVNHKPSNTKVDKKVEPDSG[human IgG1 Fc not given here] chain 2: DIQMTQSPSSLSASVGDRVTITCKASQNVGINVAWYQRKPGDAPKSLISSASYRYSGVPSRFSGSGSGTDFTLTISSLQPEDFATYFCQQYDTYPFTFGQGTKVEIKRTVAAPSVFIFPPSKEQLKSGTASVVCLLNNFYPREAKVQWKVDNALQSGNSQESVTEQDSKDSTYSLSSTLTLSKADYEKHKVYACEVTHQGLSSPVTKSFNRGEC | 28.9
BHA10 HC_7.8_B + BHA10 LC (IgG1) (protein) chain 1: QVQLVQSGAEVKKPGSSVKVSCKASGYTFTTYYLHWVRYAPGQGLEWMGWIYPGNVHAQYNEKFKGRVTITADKSTSTAYMELSSLRSEDTAVYYCARSWEGFPYWGRGTTVTVSSASTKGPSVFPLAPCSKSTSGGTAALGCLVKDYFPEPVTVSWNSGALTSGVHTFPAVLQSSGLYSLSSVVTVPSSSLGTQTYICNVNHKPSNTKVDKKVEPDSG[human IgG1 Fc with changes not given here] chain 2: DIQMTQSPSSLSASVGDRVTITCKASQNVGINVAWYQRKPGDAPKSLISSASYRYSGVPSRFSGSGSGTDFTLTISSLQPEDFATYFCQQYDTYPFTFGQGTKVEIKRTVAAPSVFIFPPSKEQLKSGTASVVCLLNNFYPREAKVQWKVDNALQSGNSQESVTEQDSKDSTYSLSSTLTLSKADYEKHKVYACEVTHQGLSSPVTKSFNRGEC | 15.1
